Data taken from a compilation of properties of binary mixtures (doi:10.1021/acs.iecr.1c02970).
The densities may have been worked out from excess volumes.

Assay: xn = mol fraction of the nth substance listed
Details: 100 kPa

O + CC[n+]1ccn(C)c1.CS(=O)(=O)[O-]
Details | mass density [kg/m3]
343.15 K, x2 = 0 | 977.8

CC[n+]1ccn(C)c1.CS(=O)(=O)[O-] + O
mass density [kg/m3]
Details | 293.15 K | 298.15 K | 303.15 K | 308.15 K | 313.15 K | 318.15 K | 323.15 K | 328.15 K | 333.15 K | 343.15 K
x1 = 0.0181 | 1035.9 | – | 1032.4 | 1030.3 | 1028.2 | 1025.9 | 1023.4 | 1020.8 | 1018.1 | 1012.4
x1 = 0.0375 | 1067.8 | 1065.6 | 1063.3 | 1060.9 | 1058.5 | – | – | 1050.3 | 1047.4 | 1041.3
x1 = 0.056 | – | 1089.7 | – | 1084.5 | 1081.7 | 1078.9 | 1076 | 1073 | – | 1063.6
x1 = 0.0749 | 1112.5 | 1109.8 | 1107 | 1104.1 | 1101.2 | 1098.2 | 1095.1 | 1092 | 1088.8 | 1082.3
x1 = 0.0945 | 1130.6 | 1127.7 | 1124.7 | – | 1118.6 | – | 1112.3 | 1109.1 | 1105.8 | 1099.1
x1 = 0.113 | 1143.9 | 1140.9 | 1137.8 | 1134.7 | 1131.5 | 1128.3 | – | 1121.8 | 1118.4 | 1111.6
x1 = 0.1833 | 1180.5 | – | 1173.9 | 1170.6 | 1167.3 | – | – | 1157.2 | – | 1146.9
x1 = 0.2741 | 1205 | 1201.7 | 1198.3 | 1195 | 1191.7 | 1188.3 | 1184.9 | 1181.6 | 1178.2 | 1171.4
x1 = 0.3671 | 1218.9 | 1215.6 | 1212.2 | 1208.9 | 1205.6 | 1202.2 | – | – | – | 1185.5
x1 = 0.489 | – | 1226.7 | 1223.3 | 1220 | 1216.7 | 1213.3 | 1210 | 1206.7 | – | 1196.8
x1 = 0.6064 | 1236.6 | 1233.3 | – | – | 1223.2 | 1219.9 | – | 1213.3 | 1209.9 | –
x1 = 0.6951 | 1240 | 1236.6 | 1233.2 | 1229.9 | 1226.6 | – | 1219.9 | 1216.6 | 1213.3 | 1206.7
x1 = 0.7708 | 1242.5 | – | 1235.8 | 1232.4 | 1229.1 | 1225.7 | 1222.4 | 1219.1 | 1215.8 | –
x1 = 0.9157 | 1244.5 | 1241.2 | 1237.8 | 1234.4 | – | 1227.8 | 1224.4 | 1221.1 | 1217.8 | 1211.2
x2 = 0.0082 | 1244.5 | 1241.2 | 1237.8 | 1234.4 | 1231.1 | 1227.8 | 1224.4 | – | 1217.8 | 1211.3
